Binding signal data for 6 molecules are collected here from article PMC12136788.

To fix the notation:
T1: UNK ZnF1-3 (human, UniProt Q9C0B0 31-174)
T1 sequence: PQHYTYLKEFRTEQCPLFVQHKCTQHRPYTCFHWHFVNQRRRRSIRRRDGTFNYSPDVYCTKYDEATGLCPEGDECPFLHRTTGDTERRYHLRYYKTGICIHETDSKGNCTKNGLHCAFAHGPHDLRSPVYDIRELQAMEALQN

B1: chr5:86670034:86670035:+_ENSG00000145715_ENST00000456692|hu_mus|FALSE|FALSE (ssRNA)
RNA: GGGAGUUCUACAGUCCGACGAUCCUCUGACCAUACUGGGUUUUGCCCCUCCCUUGCAUGAGUUUUUGCUACUUGGACGCUAUUCAAGUAGAUGUUACAAUAUGGAUUAGUAAAGUGUUUUACUGGUAGUUUAUGGGCUUCUUCCAACAGAGGAUUGAGCAUCA
B2: chr1:23381596:23381597:+_ENSG00000004487_ENST00000356634|hu_hu|FALSE|FALSE (ssRNA)
RNA: GGGAGUUCUACAGUCCGACGAUCAGUUGGUAGGGGUUUUAUCCUCUUAUAGAUGCCGAAGUUGAUAAGACCAUGACGCUCUAAAUAACUGUGAACUCGGUGGACAAGCACAGUAUCACUGUUAUAAGGUGCUUCUAAUUGUUGCAACAGAGGAUUGAGCAUCA
B3: chr16:18799448:18799449:-_ENSG00000134419_ENST00000563390|perfect_dup|FALSE|FALSE (ssRNA)
RNA: GGGAGUUCUACAGUCCGACGAUCCCUGCCUGUGAGGUUCACAACAAUUUUCCCAGCUCUGUGGUCAUCAAUGAUUUCAAAUUCGCCAAUGUAACCAUGCUUCAUCAUCACAGUGAGAAACCGGACGAUGACUUUGGAGCACGGCAACAGAGGAUUGAGCAUCA
B4: 31526874_31526994_474_CDS_ENSG00000113360_ENST00000513349|human|control|control (ssRNA)
RNA: GGGAGUUCUACAGUCCGACGAUCAGGUUCAUAUUGAUAUUGCACAGGAGGCUGCUGAGGGUGAAGCAGCCUCAGAUUUUGGGGCCUAAAGGAUGGUGCUGAGGGUCUGGCUCCAUGUCCUCCUCGUCCUCGGGGACACCCUCGCAACAGAGGAUUGAGCAUCA
B5: chr17:49043493:49043494:-_ENSG00000008294_ENST00000510283|hu_hu|motif|central (ssRNA)
RNA: GGGAGUUCUACAGUCCGACGAUCUUUGAUUUGUUCAUAAUAUACUGAAGUUACCUAUAACACUGGUGCAGUAACACAGCGGGUUCCUCUGUAUUGUUAUGGUAGAACGGAUUUUGUAAUAUAAAGUUAACAGGAAAAAAUGCUCAACAGAGGAUUGAGCAUCA
B6: chr3:148802587:148802588:-_ENSG00000071794_ENST00000310053|hu_mus|hu_hu_hu_mus_False|18_108 (ssRNA)
RNA: GGGAGUUCUACAGUCCGACGAUCUCCAACCACAUGACCUCUCAUAGUUCCAAAUAAAACCAAAUCUUGCUCUUCAUCACUCGUUAGGAAGUCAUCUGGAGGAAUAAUGUCUUGGAAUUCAAAACGUGGCAAGAAAGUUGAGUACAACAGAGGAUUGAGCAUCA

This is one part of the list.

The target in this experiment is T1, UNK ZnF1-3. The experiment can be described thus: nsRBNS (natural sequence RNA bind-n-seq); RBNS binding buffer (assumed for nsRBNS): 25 mM Tris pH 7.5, 150 mM KCl, 3 mM MgCl2, 0.01% Triton X-100, 500 ug/ml BSA, 20 U/ml SUPERase-In, 4 C; UNK is unkempt and MSI1 is Musashi-1; names of the RNAs are library labels; protein concentration not given here; high values mean tight binding.
As to B1, the binding signal was determined as 0.449 enrichment R.

Consider B2, for which the binding signal worked out at 0.733 enrichment R.

For B3, the binding signal was determined as 0.793 enrichment R.

With B4, the binding signal was found to be 0.816 enrichment R.

The molecule B5 displayed a binding signal of 1.91 enrichment R.

B6 displayed a binding signal of 1.3 enrichment R.
